# From the supplement of paper PMC4967469
# IC50 is the fitted dose that halves viability relative to control wells, and lower means more sensitive; fits outside the tested doses are given as limits. AUC, from the same fit, is the share of area under the viability curve across the 256-fold dose range: 1 means no effect, lower means more sensitive. A top dose marked as inferred comes from the curve model; the source does not state it.
# Key:
# Test in all cases: Viability of human cancer cell lines after 72 h of drug (GDSC screen)
# SGC0946 = compound: CC(C)N(CCCNC(=O)Nc1ccc(C(C)(C)C)cc1)C[C@H]1O[C@@H](n2cc(Br)c3c(N)ncnc32)[C@H](O)[C@@H]1O [SGC0946]; settings: top dose 0.5 µM; top dose inferred
# Experimental: (§1)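 Human cancer cell lines in 384-well plates, medium with 10% serum, drug for 72 h over a 256-fold dose range (nine 2-fold or five 4-fold steps up to the top dose). Adherent lines were fixed and stained with the nucleic acid dye Syto60, suspension lines read with resazurin; signal relative to control wells, capped at 0 and 100%. One two-parameter sigmoid per drug and line, fitted in a mixed model over all curves with the slope shared within a line.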
# Lenalidomide = compound: Nc1cccc2c1CN(C1CCC(=O)NC1=O)C2=O [Lenalidomide]; settings: top dose 5 µM; top dose inferred
# Experimental: as §1
# GW-2580 = compound: COc1ccc(COc2ccc(Cc3cnc(N)nc3N)cc2OC)cc1 [GW-2580]; settings: top dose 20 µM; top dose inferred
# Experimental: as §1
# Bryostatin 1 = compound: CCC/C=C/C=C/C(=O)O[C@H]1/C(=C/C(=O)OC)C[C@H]2C[C@H]([C@@H](C)O)OC(=O)C[C@H](O)C[C@@H]3C[C@H](OC(C)=O)C(C)(C)[C@](O)(C[C@@H]4C/C(=C/C(=O)OC)C[C@H](/C=C/C(C)(C)[C@]1(O)O2)O4)O3 [Bryostatin 1]; settings: top dose 0.008 µM; top dose inferred
# Experimental: as §1
Cell Line,AUC (SGC0946),IC50 (SGC0946),AUC (Lenalidomide),IC50 (Lenalidomide),AUC (GW-2580),IC50 (GW-2580),AUC (Bryostatin 1),IC50 (Bryostatin 1)
"A549 (lung adenocarcinoma, adherent)",0.965,> 500 nM,0.962,> 5000 nM,,,,
"BALL-1 (B-cell leukaemia, suspension)",0.997,> 500 nM,0.997,> 5000 nM,,,,
"BT-549 (breast, adherent)",0.976,> 500 nM,0.971,> 5000 nM,,,,
"CADO-ES1 (Ewing sarcoma, suspension)",0.958,> 500 nM,0.977,> 5000 nM,0.987,> 20000 nM,,
"CL-34 (large intestine, adherent)",0.985,> 500 nM,0.967,> 5000 nM,,,,
"CL-40 (large intestine, adherent)",0.965,> 500 nM,0.975,> 5000 nM,,,,
"CML-T1 (chronic myeloid leukaemia, suspension)",0.987,> 500 nM,0.991,> 5000 nM,,,,
"COR-L321 (lung, suspension)",0.988,> 500 nM,0.974,> 5000 nM,0.989,> 20000 nM,,
"CRO-AP2 (B-cell lymphoma, suspension)",0.982,> 500 nM,0.735,1310 nM,,,,
"D-247MG (glioma, adherent)",0.977,> 500 nM,0.979,> 5000 nM,0.98,> 20000 nM,,
"D-336MG (glioma, adherent)",0.978,> 500 nM,0.977,> 5000 nM,0.956,> 20000 nM,,
"D-423MG (glioma, adherent)",0.969,> 500 nM,0.98,> 5000 nM,0.953,> 20000 nM,,
"D-566MG (glioma, adherent)",0.984,> 500 nM,0.971,> 5000 nM,0.974,> 20000 nM,,
"DIFI (large intestine, adherent)",0.971,> 500 nM,0.987,> 5000 nM,,,,
"DOV13 (ovary, adherent)",0.979,> 500 nM,0.984,> 5000 nM,0.979,> 20000 nM,,
"EMC-BAC-1 (lung adenocarcinoma, adherent)",0.976,> 500 nM,0.983,> 5000 nM,0.967,> 20000 nM,,
"EMC-BAC-2 (lung adenocarcinoma, adherent)",0.978,> 500 nM,0.978,> 5000 nM,0.981,> 20000 nM,,
"ESO26 (oesophagus, adherent)",0.988,> 500 nM,0.988,> 5000 nM,0.989,> 20000 nM,,
"ESO51 (oesophagus, semi-adherent)",0.977,> 500 nM,0.935,> 5000 nM,0.975,> 20000 nM,,
"EW-22 (Ewing sarcoma, adherent)",0.987,> 500 nM,0.987,> 5000 nM,,,,
"FLO-1 (oesophagus, adherent)",0.972,> 500 nM,0.975,> 5000 nM,0.977,> 20000 nM,,
"GAK (melanoma, adherent)",0.989,> 500 nM,0.989,> 5000 nM,,,,

Cell Line,AUC (SGC0946),IC50 (SGC0946),AUC (Lenalidomide),IC50 (Lenalidomide),AUC (GW-2580),IC50 (GW-2580),AUC (Bryostatin 1),IC50 (Bryostatin 1)
"H513 (mesothelioma, semi-adherent)",0.984,> 500 nM,0.982,> 5000 nM,0.986,> 20000 nM,,
"HCC-366 (non-small cell lung carcinoma, adherent)",0.987,> 500 nM,0.988,> 5000 nM,,,,
"Hey (ovary, adherent)",0.987,> 500 nM,0.972,> 5000 nM,0.985,> 20000 nM,,
"IGROV-1 (ovary, adherent)",0.969,> 500 nM,0.973,> 5000 nM,,,,
"JHOS-4 (ovary, adherent)",0.976,> 500 nM,0.979,> 5000 nM,,,,
"KATOIII (stomach, semi-adherent)",0.985,> 500 nM,0.99,> 5000 nM,,,,
"KNS-62 (lung squamous cell carcinoma, adherent)",0.975,> 500 nM,0.951,> 5000 nM,,,,
"MEL-HO (melanoma, adherent)",0.985,> 500 nM,0.986,> 5000 nM,,,,
"MHH-CALL-2 (B-cell leukaemia, suspension)",0.997,> 500 nM,0.994,> 5000 nM,,,,
"MKN7 (stomach, adherent)",0.982,> 500 nM,0.979,> 5000 nM,,,,
"MOLM-16 (acute myeloid leukaemia, suspension)",0.988,> 500 nM,0.773,1720 nM,,,,
"MOLT-16 (T-cell lymphoblastic leukaemia, suspension)",0.992,> 500 nM,0.992,> 5000 nM,,,,
"NCC010 (kidney, adherent)",0.971,> 500 nM,0.986,> 5000 nM,,,,
"NCI-H146 (small cell lung carcinoma, suspension)",0.995,> 500 nM,0.995,> 5000 nM,,,,
"NCI-H508 (large intestine, semi-adherent)",0.961,> 500 nM,0.928,> 5000 nM,,,,
"NCI-H835 (lung carcinoid, suspension)",0.987,> 500 nM,0.989,> 5000 nM,,,,
"NCI-H1105 (small cell lung carcinoma, suspension)",0.987,> 500 nM,0.993,> 5000 nM,,,,
"NCI-H1341 (small cell lung carcinoma, suspension)",0.99,> 500 nM,0.992,> 5000 nM,,,,
"NCI-N87 (stomach, adherent)",0.97,> 500 nM,0.955,> 5000 nM,,,,
"OCI-LY7 (B-cell lymphoma, suspension)",,,0.975,> 5000 nM,,,,
"PWR-1E (prostate, adherent)",0.986,> 500 nM,0.984,> 5000 nM,,,,
"RCH-ACV (B-cell leukaemia, suspension)",0.991,> 500 nM,0.952,> 5000 nM,,,,

Cell Line,AUC (SGC0946),IC50 (SGC0946),AUC (Lenalidomide),IC50 (Lenalidomide),AUC (GW-2580),IC50 (GW-2580),AUC (Bryostatin 1),IC50 (Bryostatin 1)
"RH-18 (rhabdomyosarcoma, adherent)",0.979,> 500 nM,0.979,> 5000 nM,,,,
"SK-GT-2 (stomach, adherent)",0.984,> 500 nM,0.951,> 5000 nM,,,,
"SK-MEL-31 (melanoma, adherent)",0.982,> 500 nM,0.985,> 5000 nM,,,,
"SUP-B8 (B-cell leukaemia, suspension)",0.987,> 500 nM,0.987,> 5000 nM,,,,
"SW156 (kidney, adherent)",0.984,> 500 nM,,,0.941,> 20000 nM,0.986,> 8 nM
"SW620 (large intestine, adherent)",0.985,> 500 nM,,,0.99,> 20000 nM,0.99,> 8 nM
"SW837 (large intestine, adherent)",0.98,> 500 nM,,,0.949,> 20000 nM,0.847,> 8 nM
"SW872 (soft tissue, adherent)",0.988,> 500 nM,,,0.989,> 20000 nM,0.974,> 8 nM
"SW900 (lung squamous cell carcinoma, adherent)",0.983,> 500 nM,,,0.977,> 20000 nM,0.984,> 8 nM
"SW1088 (glioma, adherent)",0.979,> 500 nM,,,0.982,> 20000 nM,0.922,> 8 nM
"SW1463 (large intestine, adherent)",0.975,> 500 nM,,,0.97,> 20000 nM,0.954,> 8 nM
"T-24 (bladder, adherent)",0.966,> 500 nM,,,0.988,> 20000 nM,0.967,> 8 nM
"TC-YIK (cervix, suspension)",0.989,> 500 nM,0.988,> 5000 nM,,,,
"TCCSUP (bladder, adherent)",0.983,> 500 nM,,,0.985,> 20000 nM,0.956,> 8 nM
"TGBC24TKB (biliary tract, adherent)",0.989,> 500 nM,,,0.974,> 20000 nM,0.989,> 8 nM
"THP-1 (acute myeloid leukaemia, suspension)",0.99,> 500 nM,,,0.97,> 20000 nM,0.988,> 8 nM
"U031 (kidney, adherent)",0.964,> 500 nM,,,0.977,> 20000 nM,0.985,> 8 nM
"VMRC-LCD (lung adenocarcinoma, adherent)",0.984,> 500 nM,0.991,> 5000 nM,,,,
"WSU-DLCL2 (B-cell lymphoma, suspension)",0.991,> 500 nM,,,0.988,> 20000 nM,0.991,> 8 nM
"ZR-75-30 (breast, adherent)",0.981,> 500 nM,0.983,> 5000 nM,,,,
